# The full ranking holds about 33,000 sequences; the median of “E-score (-0.5 to 0.5)” is about -0.032, and the highest 2% start at about 0.36. The list shows a part of the results.
# Target: T1, Sko1 (UniProt Q02100)
# T1 sequence: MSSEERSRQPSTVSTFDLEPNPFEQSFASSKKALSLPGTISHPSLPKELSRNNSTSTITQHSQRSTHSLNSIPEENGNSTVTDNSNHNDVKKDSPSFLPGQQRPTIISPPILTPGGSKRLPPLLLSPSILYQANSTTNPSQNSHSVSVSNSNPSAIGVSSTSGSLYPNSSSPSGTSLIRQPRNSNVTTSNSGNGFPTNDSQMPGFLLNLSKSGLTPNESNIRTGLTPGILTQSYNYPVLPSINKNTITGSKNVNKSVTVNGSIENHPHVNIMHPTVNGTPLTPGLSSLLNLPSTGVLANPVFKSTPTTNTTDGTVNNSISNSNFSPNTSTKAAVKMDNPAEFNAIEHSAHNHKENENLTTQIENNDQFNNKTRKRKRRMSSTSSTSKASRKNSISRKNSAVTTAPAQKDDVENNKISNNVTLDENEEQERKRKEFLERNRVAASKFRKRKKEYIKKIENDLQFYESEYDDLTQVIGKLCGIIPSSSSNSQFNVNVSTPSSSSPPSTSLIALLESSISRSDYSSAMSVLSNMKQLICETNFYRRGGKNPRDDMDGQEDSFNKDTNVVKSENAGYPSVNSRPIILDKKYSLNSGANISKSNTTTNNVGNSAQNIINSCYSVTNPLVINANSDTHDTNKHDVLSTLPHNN
# Test: PBM E-score (8-mer binding enrichment) (E-score (-0.5 to 0.5)); higher = stronger / more preferred TF binding; most listed sequences are background and not binding sites
# Settings: protein concentration: 200 nM; construct: GST-full length
# Method: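 Universal 'all 10-mer' protein binding microarrays (Agilent AMADID 015681) probed with GST-tagged S. cerevisiae TFs (full-length or DBD) made by in vitro transcription/translation (PURExpress), about 100-200 nM. Bound TF was detected with fluorescent anti-GST. Each ungapped 8-mer (which stands for itself and its reverse complement) is scored by the PBM enrichment score (E-score), a modified Wilcoxon-Mann-Whitney statistic from -0.5 to +0.5, computed with the Universal PBM Analysis Suite. Scale: above 0.35 generally sequence-specific binding.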
row,Sequence,PBM E-score
1,AAGGTCAT,0.00907
2,GAATGGCC,-0.181
3,CTCCGGTC,-0.346
4,CATCGAGC,-0.235
5,CAGTCGTC,0.0351
6,CCTCCTGA,-0.0476
7,CTACTTAA,0.0276
8,CATTCAAG,-0.142
9,CCTCCGTA,-0.171
10,AGTCCTAG,-0.248
11,GAGTATGC,0.0286
12,GGCTCACA,-0.118
13,GACACGTA,0.44
14,AAGGACCG,-0.122
15,AGCGTCTC,-0.282
16,CAGCGTAG,-0.0288
17,CATGTCGG,-0.103
18,ACTTGACC,-0.156
19,ACCGTGAC,0.126
20,CGTGGTAC,0.213
21,TCCATACA,0.0575
22,AAAAATGG,0.0332
23,TATTTCCA,0.066
24,CTATAGCA,-0.0339
25,AGGAGAGC,-0.197

row,Sequence,PBM E-score
1,AAGCGTTG,-0.0657
2,AGAAGACA,0.124
3,CGGAGCCC,-0.374
4,ATACAGTA,0.204
5,CCGGGCAG,-0.321
6,CAGCCGCG,-0.14
7,AGACATAC,0.135
8,AGAGGCAT,-0.0275
9,CCAGCAAC,0.041
10,CGGATTTA,-0.0418
11,AGTGTGAA,0.0125
12,AGCGTCCG,-0.0937
13,GAATGTTA,-0.0561
14,ATGCATCG,0.0283
15,AAAGAGAC,0.0001
16,ACGGCGAC,-0.0729
17,AATTTAGG,0.234
18,AAGCATAA,0.172
19,ACTCCGGC,0.0335
20,GATGCTAA,-0.00505
21,ATCGTAGC,0.2
22,GACAACTA,0.132
23,AGCTAGAC,-0.0286
24,ACGAGCCT,-0.11
25,ACCAGCAA,-0.107

row,Sequence,PBM E-score
1,CTACCCTC,-0.192
2,GCCCTCGA,-0.152
3,CGTAGGCC,0.149
4,AGCGTATC,-0.0128
5,GATTGGCA,-0.0176
6,TCAATCCA,0.0285
7,GCACCCAA,-0.211
8,CTAAGCAG,-0.21
9,ATGGGTTG,-0.0519
10,GTCATGTA,0.255
11,GCGATCAA,-0.00541
12,ATGAGATA,0.161
13,CCGGTCCG,-0.31
14,CCCGTCTC,-0.256
15,TCCGAGGA,-0.19
16,GGACTTAC,-0.0203
17,CTAGTCGC,-0.327
18,CAGGAACA,0.00796
19,CTAGACAA,-0.00983
20,AGGGGGGC,-0.328
21,GACGTGAA,0.358
22,GAAGCGGC,-0.279
23,AACTAGCC,-0.17
24,ACAGCAAG,0.0393
25,ACGGCCCC,-0.251

row,Sequence,PBM E-score
1,ATTTACAA,0.209
2,TCCGTCAA,0.0302
3,ATAACTTG,0.00977
4,AATTTCAG,0.0849
5,AATAACCG,0.019
6,CCTTGCCC,-0.231
7,AAAACTTA,0.159
8,AGCCAAGG,-0.135
9,TACATATA,0.253
10,TCACAGGA,0.00446
11,CCATCTTC,0.072
12,TGTTGTAA,0.198
13,AGACTAGA,-0.152
14,GGTCCGAA,-0.0412
15,ACACCAAC,-0.0153
16,GCGGAACC,-0.28
17,ACGCTACA,0.0785
18,CAACGTGA,0.182
19,ATGATGCG,0.31
20,CCCGAGTC,-0.18
21,CCGCGCCG,-0.269
22,AATCCTTC,-0.151
23,CACACCAC,0.12
24,TACGTTCA,0.374
25,AAACTGCG,-0.0403

row,Sequence,PBM E-score
1,ATGCGCGG,-0.0905
2,GTTTGTTA,0.206
3,ATTGATCG,0.0452
4,ATGGCAGA,-0.00965
5,CACGTACG,0.406
6,AGACGGTC,-0.12
7,TGAGAGAA,0.125
8,GTCACAGA,0.234
9,ATAGCGAA,0.221
10,CCCTCTAA,-0.193
11,CAACTCGC,0.0082
12,ACCTAGAT,-0.00297
13,CGTCCGTA,0.193
14,CTTGTCCA,-0.149
15,CAACAATC,0.149
16,TAGGCCGA,-0.218
17,CTTATTTA,0.00976
18,CCAATACC,-0.194
19,GCACCGGA,-0.289
20,CGAGTGGA,-0.154
21,CAACATGC,0.138
22,CTGTTTTA,0.035
23,AAAAGGTC,-0.18
24,CGGCGCGC,-0.0172
25,ATCCAAAC,0.149

row,Sequence,PBM E-score
1,AGATTCAC,0.00396
2,AACCAGCC,-0.271
3,TATATGGA,-0.0394
4,TACGCTAA,0.234
5,ACGTGTTC,0.36
6,CATCAGCG,0.0431
7,CAAAAAAA,0.187
8,AGTTCCAC,-0.143
9,CCGTAGAC,-0.135
10,ACCTTCCT,-0.223
11,AACCCCTC,-0.296
12,CAATAACG,0.287
13,CCCGATAA,0.0292
14,TCTGTGAA,-0.0754
15,CCAAGTGG,-0.213
16,TATATTCA,0.217
17,GTATTGCA,0.0688
18,CGCTCGGA,-0.188
19,CAGTTATA,-0.0005
20,TAGTACCA,-0.0841
21,AGTCGACG,0.192
22,AGAGCACC,-0.328
23,ATTAACTC,0.157
24,GCCGTGAA,-0.0961
25,TGGCGCAA,0.156

row,Sequence,PBM E-score
1,GGTGTCTA,0.0212
2,AGGGTAGC,-0.121
3,AGATTAAG,0.118
4,GGGTGAAA,0.0819
5,AGCCGAGC,-0.303
6,CATGCGTC,0.161
7,ATATCTCG,0.101
8,GAGCGTCA,0.233
9,CGGTATGA,0.22
10,GAGCGAAC,-0.212
11,TCAATACA,0.258
12,GTGTGCTA,-0.0545
13,ATAACACC,0.134
14,AAGAGTCA,-0.0261
15,AATGAAAG,0.111
16,AGCGAGTG,-0.0868
17,AAGTTACT,0.00332
18,GTTGACCA,-0.235
19,CCTAGAGG,-0.305
20,CGTACGGA,0.169
21,ACTATACC,-0.0667
22,ATAAGCAG,-0.0649
23,ACCCGGGC,-0.374
24,ATCCTCGC,-0.219
25,CGCGCGCA,0.222

row,Sequence,PBM E-score
1,GCACGTCC,0.0489
2,TGTTCTAA,0.161
3,AACGGGAC,-0.261
4,CACCCCGA,-0.277
5,GTAGGATA,-0.0561
6,ACGAGAAG,0.0444
7,CTAGTACC,-0.144
8,ATGAAGTC,-0.0237
9,TAAGCATA,0.192
10,AATCCACG,0.181
11,AAATGGTT,-0.105
12,AATATAAC,0.158
13,CGCCCGAC,-0.18
14,ATGGGCCA,-0.106
15,CAGTCCAA,-0.273
16,ACACGAGA,-0.0015
17,ACCGAAAG,-0.0787
18,AGACAGCA,-0.175
19,CATACTCG,0.074
20,TACTACAA,0.233
21,AAGTGTTA,-0.023
22,ACATAAAC,0.291
23,AGCGGACA,-0.249
24,AATAAACC,0.0579
25,TCGCCAGA,-0.123

row,Sequence,PBM E-score
1,ATTAACGC,0.12
2,CTACTCGA,0.00452
3,TCACCGAA,0.0652
4,AATTAGCA,0.0703
5,ACGTGATA,0.409
6,AAAAAAGA,0.0782
7,AACTCGGT,-0.00192
8,AATGAAAT,0.281
9,GCTCTACC,-0.222
10,AAAAAGAA,0.0522
11,AGTATCCC,-0.257
12,AACATTGT,0.105
13,TCTCTGAA,-0.0916
14,AATTACGG,0.26
15,ATAGAATC,0.0227
16,ACATGATG,0.177
17,GTTTTTAA,0.206
18,AACCCATA,0.00986
19,ACCGTCGG,-0.164

# — the supplement of paper PMC3334620
